# This is one part of the list. At the low end of the ranking, values are background and their order means little. The protein was read in a cell extract, so binding may be indirect.
# Target: T1, HNF4alpha8 (COS-7 nuclear extract) (UniProt P41235-5)
# T1 sequence: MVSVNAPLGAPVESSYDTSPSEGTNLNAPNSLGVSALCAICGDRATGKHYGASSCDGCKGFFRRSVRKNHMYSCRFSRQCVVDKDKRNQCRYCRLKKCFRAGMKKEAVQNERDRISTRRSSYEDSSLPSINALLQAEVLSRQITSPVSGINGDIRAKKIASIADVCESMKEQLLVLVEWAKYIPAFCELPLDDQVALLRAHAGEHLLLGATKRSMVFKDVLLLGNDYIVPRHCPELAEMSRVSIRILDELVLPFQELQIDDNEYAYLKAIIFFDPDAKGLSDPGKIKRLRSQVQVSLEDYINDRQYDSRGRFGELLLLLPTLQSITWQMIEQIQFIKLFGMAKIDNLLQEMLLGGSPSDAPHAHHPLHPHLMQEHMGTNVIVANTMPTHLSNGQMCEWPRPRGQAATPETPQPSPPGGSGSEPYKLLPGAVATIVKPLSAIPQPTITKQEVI
# Test: protein-binding microarray
# Settings: COS-7 nuclear extract on double-stranded Agilent 4x180k PBM; binding buffer, salt, pH and temperature not given; high values mean tight binding; double strand, one strand shown; sequences stand for … in …GCCTAGGGAGATTAGAGTATCGGTCGA
row,Sequence,binding signal (log2 normalized intensity)
1,CTCATTTATTATTTGTCTGGGTTATCAGTC,1.66
2,TCGGGGCATGCACTGTTTGCCATAGATCCC,-0.985
3,CTTAGCAGAAGCCCTCCTGGACATTGTGTG,2.13
4,CCTTTGATCTCCGTGTTTGGAATTGTGTCA,2.53
5,CGGGTGTTTCTGGGAGTTGTGGTCCGCAGG,1.29
6,TCAAGTGTGCACACTTAGAAAATGCCCTCA,3.29
7,TCTGCTGTTTGTTTCACTAATGTAGATTTT,1.38
8,TTCAGAGGCCAGCAGTGCTTTTCCCAGGAA,-1.34
9,CTTTTCCTTTTTGCATGAGAATCTGACCTT,4.72
10,ATAGACTTAAGTCTGAATTCTAGTCCTATC,-1.38
11,TTCTGTTCAATGGTGCTTTTGATATTGTTG,1.79
12,TTGGGGCTGATGTGCACAGTCCACAGAAAC,0.33
13,GACTCGAATGCGAACCTGTCTCCAGAGGAC,-1.45
14,TAGTTAGGGCCTTGCAGGGGGCCTCCTGCC,-1.18
15,CATTCTTTCCAGCTTTGATAGTCTGCTACC,1.21
16,TTCCCCATATTCGTCCAGTTACTGAAAGGG,0.831
17,GGCATCTAACCTTCGTCCTTGCCCCTGGCT,2.95
18,AGTCAATCCCGTGGACTTTGCCTGCCCATC,5.08
19,GCAACTGGTGAGCAGGTTAATTATAATCGC,0.111
20,GAGAACAGGTTCATTCTTTAAGTGTGGGGT,1.39
21,TACATTTGACTGAGGTGCAGGACAAAGTGT,0.876
22,CCTGTGACCAAGAATGCCTAACCTCCTAGG,-1.36
23,AACCATCTGGCTTGGCCCCCGGACCCAAAG,4.32
24,AAAGCCCATTAAATCTTCCCTCCTGTGAAC,0.689
25,GCATGACTACATTCTTTGAAGACTAGGCTC,-1.29

row,Sequence,binding signal (log2 normalized intensity)
1,ACAAAGCCTGGGGTTTGGCTCCAAGGCTGA,-1.28
2,CCACTGAGACGGGCTGAGGATGAGGACTTT,3.17
3,TCTGATACATTGGACAACTGTACTTTGGAC,8.02
4,GATAAGGCGTCTTATCAGCCCCCATGTCAG,3.45
5,CCTCCCAGGGACACATGCCCCTTCCCTCCC,4.28
6,GGCCAGGGAGTACACCCCTCACTCCCTCCA,1.96
7,TCCAACCCTCCGTTTCTCTGGGCCTGATAG,-1.24
8,CTGAGCCCGCTCCACTCCGGGCGATCCGGG,-1.39
9,AGAATGGAATTCCAGAGAGACTCACTGCAA,-1.37
10,TCTTGAAATCCCAAGCAGTGATATTCTCTC,-1.28
11,ACCTTCTCCCACTTCCCTGCCTTTGTATAA,1.57
12,GGGGCTTTTGTTTAGGAAGAGATCAAAGTT,1.19
13,AGAACAAACAAATTTAGCAAGACTGCAAAA,-1.24
14,GAGTGACCTCTGGTCATTCAATGTTTGGGA,2.66
15,TTGTCCTCTGATTCTCCAGTCCGAAGGTCC,3.43
16,AAAGGCACTTTGATAACTGGGTAAATGTAC,1.15
17,GAAGGCCTCTGATGATTCTAAAGGCACAAT,-1.18
18,CGAGCACGTCGAGCAGGCCCCGTCCCCGCC,4.5
19,AGCTGCTTCAGGAGCCCCCTGGGGGAGGTT,-1.05
20,AGTCCAAATTCCTAGCCCTCTTTCAAAGAC,-1.22
21,GAGACCTCTGCAGGAGGACTGGATCAATGG,-1.03
22,TGCACATGCCCCTCCCAGGGACACATGCCC,4
23,TACGTTTGTGATACACCTTGCCTGGCTACC,-0.733
24,GAACAGGTCAAAGGTCAGTTTCTTTAAGAC,7.63
25,TGTGACAGAAGTCATGTCTCATTGCCCCTT,4.58

row,Sequence,binding signal (log2 normalized intensity)
1,GGCTTGATCCCTGAACTTTGCTCCCACCCT,6.25
2,TCAGACCTGACCTTTGGATTCCCAGATGGA,5.76
3,TCCCATCTGTGCTCATTATTATCAGCAAGA,-1.02
4,GGCCTGATAGATTTTGCATTGCTCACATAG,-0.853
5,GGAAGGTATTGTCATTATTCCAGCTTTACA,-1.04
6,TTGCTTAAACCTAGCTACTAGCCATTTCGG,-1.42
7,AGTTTTGTTATCTCTGCTTGCAATTTTTGT,1.15
8,ATGTGGTATTAACATGTAAATATGACCTTT,8.01
9,GCCTGCAGGTGAATGGAAACAAGAGAGTCT,-1.34
10,CCATCCTTGTTTTGGGGGTTGGTATTACAA,1.53
11,CGCAGTCGCCTGCAAGACAATACCTTCACT,-1.29
12,GGGATGGACTTTGGCCCTCAGCCCAATGTG,7.1
13,TAGTAAAGCTCATGAAGCTTCCCCTTTAAC,-0.601
14,GGGCACCTCTGAAAGCACTTGTAGGCCTGT,-1.28
15,AAAGAGGCTACCAGACCTTGGCCTGCTCCT,-1.32
16,GGTTAAAAGTTCTGCTGAGTATCCAAAGGT,1.58
17,CAGAAAGTTAGGTTCTGGCACCTGAAGCTG,-1.19
18,ACTGCTCCAGTGGACATTGGCCCTTTGACC,6.76
19,TTGGTCTCATGGGCCTAAACATTCCCCTTT,2.25
20,CCTTTGGTCTAAACCTACTTAGATCAAGAT,0.214
21,CTGTAGTAAGGGAGTGTGGGGTGGTGTCAG,0.31
22,GTTGCAGTGAGCTAAGATTGGACTCTGCAC,6.55
23,ACCAGAGCCGTCTGGTAAATTTCTAACACT,-1.48
24,TTTGGACTTTGGACTTGGGACTTTCGAGTT,8.22
25,TCCATTTCCCACATTGCTCTCCCATAAGAA,-0.979

row,Sequence,binding signal (log2 normalized intensity)
1,TGGAAATTCAGAACTTTGACCACCTACTGT,3.02
2,TACAATTCCAGCAAGGATGGGGGCAAAGGT,3.95
3,GAATGAGTTTCCAGAATTGCTTTACGAAGT,-1.23
4,CTGGCCTCGGGGAGCTGTGGGCCTCACACC,-1.27
5,CTGAAAGCTTCAAAGGACAGGCTGACTATC,-1.27
6,GAAGATAAGCAGATCTTTAGAGACAGAAAA,-1.32
7,AAACGGGTTTTACCCTGGGAATGGAGAGAG,-1.15
8,AAGCAGTAGACTAAAACCCATATCTGACTG,-1.3
9,CTTCAGCCAGATAGCCACTGGGGTCATGGA,3.08
10,AGGCTGACCCGTGAATCCTTAAGATTCCTG,-1.3
11,CTCTGTTGCATGGTTGACATACTTCTGAGT,1.07
12,GCATGAACCTTTGCTCCCTGGGAACCCCTC,3.47
13,TAGGAATGTCATGCAGCTAAAAGCAGCATC,-1.21
14,TTGGAGACGCAGAGAAGCACTGCAGTTTAA,-1.37
15,CATTAGGAGGAAAAAGAATGCCTCTTTCAA,-1.34
16,CTGCACTGCAATGACAATAAATTATACCAA,-1.32
17,ATGGAGCTGGAGGGCAAAGGTCAGAGGCTG,6.88
18,GGCCTGGCCACTCCGTTTGCTATGGCCTTT,2.36
19,TATTTAAGGGTTCAGGGCAGAAGAGGTTAT,1.2
20,AAACAGTACTGACATCTATCAACATATCTT,-1.32
21,CCCTTTGGCCTTTCTAATTATTTACAGGGA,1.72
22,GTGTATGATGACGCCACGCCGCTCTTTCTC,-1.27
23,AAGAGCATGGCGCCAGGGAGTGATTGCCCT,2.5
24,GCGCCGCGCCGGGGAAGCTGTTGGGCGCCG,1.42
25,GGCAGACTCAAGATAGAGGGCTGCCAAAGC,-1.4

row,Sequence,binding signal (log2 normalized intensity)
1,CTGGAGAATCCTCTCTTGCTCAGGTGAGGC,-1.24
2,CTCTTTCAACTTTCAACATTTAACTTAACC,0.426
3,CGCAGCAAGTTACACAAGTAGAATGAAAGC,-1.31
4,GAGGGGCCTGTCAGGCCCAGAAACACTGAA,-1.24
5,GCCTCCCTGTGGGGGAGGTGCAGAGAGGGG,-1.3
6,CTTCCCTGGTCCTCAGGCCTTTGGACCCAG,6
7,CTTCTCAACTAGGCCTGAAATTTGGCCTGC,1.97
8,TGAATTCCAAAGGTTATTTTCTTTAAGCCT,2.88
9,GCAGATGATCAAGAGGCTCTTCAATGCATT,-1.32
10,GTGAGTCAAGCACTTCTCACATCACGTCTC,-1.34
11,CAAATGAAAAGAATATCTCAGCAGCCTGGC,-1.25
12,GAAATTCTCAAAAGTTTTTCCCTTCTGTTA,-0.118
13,GGTCACCTGGAAGCAGAAGGAGGAGGAGGT,-1.41
14,CTGGCATAGCATGCCACGATGATTAGCTGA,-1.22
15,CACAGCTGGACTTTGGCTGCAAAATTTGAA,3.88
16,GCAGTGAGAACAGGTTCATTCTTTAAGTGT,1
17,AGAATTCCTTCTTGCTTAGGATAGGGTCAG,2.52
18,GAGGACAGTTGTGTTTGTTGACCACTCTTT,1.79
19,TAAGATTAGGTGCTGAGCAACTATAAAACA,-1.19
20,CCAGTTTGCATTTTCATGGACAGAGATTAT,1.21
21,CCTTCAAGGATTAGCAGATAAATCTAGGCC,-0.973
22,AACTTGTGTTCAGAGCTTGCTGCATTCCCC,1.26
23,CAACTAGGGCAAAGGTTAGCTTGGACAGAG,3.68
24,GATATCCATCATGTTTATCTTCTGCTTTCA,-0.726
25,TGTGTAACATTCCACAGGAACCAAAGTCTA,2.55

row,Sequence,binding signal (log2 normalized intensity)
1,TTCTCCACTGGGAAGTAGAAGAAAGCTTCA,-1.29
2,ACATCAGCTGAGCAGAGAGGACCCTGTGAT,1.76
3,GTTGGAATTTGGTCACAGAAAGTGACGTGC,1.61
4,TGTGCTCATGACAAAGAAATGTAACCTTTG,4.55
5,TTCCTGCCTGGTCCGCCCTTCCCCGCTCTC,2.24
6,GGATTTGGAGATCAGAGTCCAGCTGTGCCC,3.13
7,TTTAACGGTCTGCCCTCTTGTCCTTCCCCT,3.51
8,GTAAGGAAGACAAGACAAGGAAGTTAAGAG,-1.28
9,AAATACAAGGACACTGAAAGGCATTCTGCC,-1.19
10,GCTGTTCCTTTCCTGCTGTTCCTTCAACAC,0.806
11,AACCCATCCACCCATCCAAAGGTCAGCAAT,4.75
12,ACTGCCCGCTGGCCTCCCCATCCTCATGAC,2.93
13,AACAAACATGAGGGACTGGGAAGAGAAGGT,-1.4
14,TCCAGCCCTGTCTCTCAGGTGTAACAGTTG,0.88
15,GTCAATGGTAGAAAAGGAAATATCTTCGTA,-1.31
16,GGGGTCAGCAAAAATAGCCAAAATAAAGCA,-1.29
17,TTCCTGCTACAGAGCTCAGATTTCAAGGTG,-0.838
18,TGAACTAACAATTCTTTCTGATAAGAGCAT,-1.28
19,TCCCGTCCCTGCCAAAGGTCAGAGTTGAAC,4.3
20,TTTAGCTTTAGTTCAGGGAAGAGGGCACTC,0.987

# — publication PMC10726135
